The values that follow come from PubChem BioAssay AID1508642 (National Center for Advancing Translational Sciences (NCATS), 2021).

Molecules are shown by their SMILES. Screen size: about 43,000 compounds; about 200 (0.47%) were called active. About 12% were inconclusive and are not listed. Calls come from the whole dose curve; as a rule, active = well fitted cell-killing curve with a large enough effect; inconclusive = small, poorly fitted or top-dose-only effect, or effect the other way; inactive = flat fitted curve, though single readings scatter. The list shows a part of the results.
% is set by controls: 0 for no effect and ±100 for the full control effect.

The nature of this assay: Cell viability qHTS assay in S16 Pmp22-F2sN cells. Note: nearly all actives have a fitted effect of over 65% in size. The settings on record: S16 Pmp22-F2sN Schwann cells (luciferase reporters placed in the Pmp22 gene) viability, CellTiter-Glo, 24 h; series mostly up to 57.5 µM; activity change, negative = cytotoxicity: at the top concentration. A digest of the protocol:
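Luminescence from CellTiter-Glo, read by CCD camera after a 15 min room-temperature incubation, served as the viability signal. Reporter Schwann cells (S16 Pmp22-F2sN) had been treated with pin-transferred compounds for 24 h at 37C.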
As for `O=C(CSc1ncccc1C(=O)Oc1ccccc1Cl)Nc1ccc(C(F)(F)F)cc1Cl`, the “activity change, negative = cytotoxicity” value is inactive: -2.39%.

Take `CCN(CC)S(=O)(=O)c1ccc2c(c1)N(CC(=O)Nc1cccc(C#N)c1)C(=O)CO2`: the “activity change, negative = cytotoxicity” value is inactive: -3.93%.

For `CCc1nnc(NC(=O)CSc2nc3c([nH]c4ccccc43)c(=O)n2-c2ccc(Cl)cc2)s1`, the “activity change, negative = cytotoxicity” value is inactive: 11.4%.

As for `FC(F)(F)c1cc(-c2ccccc2)nc2cc(-c3ccccc3)nn12`, the “activity change, negative = cytotoxicity” value is inactive: 0.345%.

As to `Cc1ccc(CN(C(=O)COc2ccccc2[N+](=O)[O-])c2ccccn2)o1`, the “activity change, negative = cytotoxicity” value is inactive: 4.01%.

As to `O=c1oc2ccccc2cc1-c1cn2cc(Cc3cc(Cl)ccc3Cl)sc2n1`, the “activity change, negative = cytotoxicity” value was inactive: 8.03%.

In the case of `CCC(=O)N1CCc2cc(S(=O)(=O)CCC(=O)N3CCN(c4cccc(C)c4C)CC3)ccc21`, the “activity change, negative = cytotoxicity” value is inactive: 20.9%.

Turning to `COc1ccc(CC(=O)Nc2nc3c(s2)CCCC3)cc1`, the “activity change, negative = cytotoxicity” value was inactive: -6.74%.

`Cc1ccc2c(c1)N(C(=O)CCC(=O)NCc1cccc(F)c1)CC(C)O2` (stereo unspecified): the “activity change, negative = cytotoxicity” value is inactive: -0.566%.

Turning to `Cc1cccc(C)c1NC(=O)c1cc(S(=O)(=O)N2CCc3ccccc3C2)ccc1F`, the “activity change, negative = cytotoxicity” value is inactive: -16%.

With `CCN(CC)c1ccc2cc(-c3nc4sc5c(c4c(=O)[nH]3)CCC(C(C)(C)C)C5)c(=O)oc2c1` (stereo unspecified), the “activity change, negative = cytotoxicity” value is inactive: 24.5%.

Consider `COc1cccc(NC(=O)c2c(C)oc3nc(C)nc(N4CCCC4)c23)c1`, for which the “activity change, negative = cytotoxicity” value was inactive: 0.266%.

For `CC(=O)c1cccc(NC(=O)c2ccc3nc(Cc4ccccc4)oc3c2)c1`, the “activity change, negative = cytotoxicity” value was inactive: -2.37%.

With `CCn1c(=O)c2sccc2n2c(CCCC(=O)N3CCN(c4ccc(F)cc4)CC3)nnc12`, the “activity change, negative = cytotoxicity” value was inactive: -1.34%.

As for `CCCCOc1ccc(C(=O)N(Cc2ccccc2)C2CCS(=O)(=O)C2)cc1` (stereo unspecified), the “activity change, negative = cytotoxicity” value is inactive: 8.24%.

As for `CCOc1ccc(-c2cc3c(=O)n(CC(=O)NCc4ccc(F)cc4)ccn3n2)cc1`, the “activity change, negative = cytotoxicity” value is inactive: -5.77%.

For the compound `O=C(c1ccc(Cl)cc1)n1nc(-c2cccnc2)nc1NCc1ccc(F)cc1`, the “activity change, negative = cytotoxicity” value is inactive: -2.99%.

As to `CCOC(=O)c1cccc(NC(=O)CCS(=O)(=O)c2ccc3c(c2)CCN3C(=O)CC)c1`, the “activity change, negative = cytotoxicity” value was inactive: -6.68%.

Turning to `COc1cccc2cc(-c3nc(-c4ccc(Cl)cc4)cs3)c(=O)oc12`, the “activity change, negative = cytotoxicity” value was inactive: 3.61%.

`COc1ccc(-c2c(C)c3ccc(O)c(CN4CCOCC4)c3oc2=O)cc1OC`: the “activity change, negative = cytotoxicity” value is inactive: 2.58%.

On to `COc1cccc(NC(=O)Nc2ccc3c(c2)N(C)C(=O)c2ccccc2S3)c1`, for which the “activity change, negative = cytotoxicity” value was inactive: -2.44%.

In the case of `CC1CCN(C(=O)Cn2c(-c3cccs3)cc3cc(Cl)ccc32)CC1`, the “activity change, negative = cytotoxicity” value was inactive: 18.1%.

For the compound `CCCCOC(=O)c1c(C)oc2c1cc(NS(=O)(=O)c1cc(OC)ccc1OC)c1ccccc12`, the “activity change, negative = cytotoxicity” value was inactive: 2.59%.

Regarding `CCOc1ccc(-c2nnc(SCC(=O)Nc3cccc(C#N)c3)o2)cc1`, the “activity change, negative = cytotoxicity” value is inactive: 15.9%.

Take `O=C(CN1C(=O)c2ccccc2Sc2ccc(C(=O)N3CCOCC3)cc21)Nc1ccc(Cl)cc1F`: the “activity change, negative = cytotoxicity” value was inactive: 2.04%.

In the case of `CCCN1Cc2cccc(C(=O)Nc3cc(Cl)ccc3C)c2C1=O`, the “activity change, negative = cytotoxicity” value is inactive: 10.1%.

On to `Cc1cc(C)c2c(c1)c(C)cc1nnc(SCC(=O)c3ccccc3)n12`, for which the “activity change, negative = cytotoxicity” value is inactive: 1.69%.

With `Cc1ccc(C)c(NC(=O)C(CC(C)C)N2Cc3ccccc3C2=O)c1` (stereo unspecified), the “activity change, negative = cytotoxicity” value was inactive: -12.7%.

For the compound `O=C(CSc1nccn1Cc1ccc(F)cc1)NCc1ccco1`, the “activity change, negative = cytotoxicity” value is inactive: 8.31%.

Turning to `COc1ccccc1CNC(=O)CSc1ncc(S(=O)(=O)c2ccc(C)c(Cl)c2)c(=O)[nH]1`, the “activity change, negative = cytotoxicity” value was inactive: -3.37%.

With `COc1ccc(-c2nnc(SCC(=O)N3CCC(C)CC3)o2)cc1`, the “activity change, negative = cytotoxicity” value is inactive: -7.32%.

As to `COc1ccc(-c2nnc(C3CCN(S(=O)(=O)c4cccc(Cl)c4)CC3)o2)cc1`, the “activity change, negative = cytotoxicity” value was inactive: -21.7%.

Consider `CNC(=O)C1CCC(Cn2c(=O)c3sccc3n(CC(=O)N3CCCC(C)C3)c2=O)CC1` (stereo unspecified), for which the “activity change, negative = cytotoxicity” value was inactive: -1.13%.

`COCCCNC(=O)C1CCN(Cc2cc3ccccc3n2Cc2cccc(C)c2)CC1`: the “activity change, negative = cytotoxicity” value is inactive: -15.9%.

`COc1ccc(S(=O)(=O)N2Cc3ccccc3CC2C(=O)Nc2ccc(C)cc2)cc1OC` (stereo unspecified): the “activity change, negative = cytotoxicity” value was inactive: -0.758%.

In the case of `COc1ccc(CCNC(=O)CCCn2c(=O)c3ccccc3n(Cc3ccccc3)c2=O)cc1OC`, the “activity change, negative = cytotoxicity” value is inactive: 4.09%.

Turning to `COc1cccc(CNC(=O)C(=O)NCC(c2cccs2)S(=O)(=O)c2ccccc2)c1` (stereo unspecified), the “activity change, negative = cytotoxicity” value is inactive: -16.1%.

As for `O=S(=O)(c1ccc(F)cc1)N1CCC(Oc2cccc(C(F)(F)F)c2)CC1`, the “activity change, negative = cytotoxicity” value is inactive: -10%.

For the compound `COc1c(Cl)cc(Cl)cc1C(=O)Nc1cccc(-c2nc3ccccc3o2)c1C`, the “activity change, negative = cytotoxicity” value is inactive: 3.07%.

In the case of `CCn1c(COc2ccc(Cl)cc2Cl)nc2ccccc21`, the “activity change, negative = cytotoxicity” value is inactive: 2.84%.

For the compound `CCc1ccccc1NC(=O)c1cn(C)c(=O)c2ccccc12`, the “activity change, negative = cytotoxicity” value is inactive: 15.1%.

As to `CCOC(=O)CC(NC(=O)Cn1nnc(-c2ccccc2Cl)n1)c1ccc(OC)cc1` (stereo unspecified), the “activity change, negative = cytotoxicity” value was inactive: -24.6%.

As for `Cc1ccc(C)c(NC(c2ccccc2)c2nnc(-c3ccccc3F)o2)c1` (stereo unspecified), the “activity change, negative = cytotoxicity” value is inactive: -21.4%.

For the compound `Clc1ccc(CCNc2nc3cc(Cl)c(Cl)cc3n3cnnc23)cc1`, the “activity change, negative = cytotoxicity” value was inactive: 7.18%.

In the case of `COc1ccc(CCN2C(=O)N(c3cccc(C)c3)C(=O)C2CC(=O)Nc2ccccc2)cc1OC` (stereo unspecified), the “activity change, negative = cytotoxicity” value is inactive: -1.6%.

Take `Cc1cccc(CCNC(=O)c2cc(S(=O)(=O)N3CCCCC3)c[nH]2)c1`: the “activity change, negative = cytotoxicity” value was inactive: -14%.

Take `Cc1cccc(N2CCN(C(=O)c3ccc4c(c3)N(Cc3ccccc3)C(=O)c3ccccc3S4(=O)=O)CC2C)c1` (stereo unspecified): the “activity change, negative = cytotoxicity” value is inactive: 4.28%.

Consider `Cc1c2cnn(-c3ccccc3)c(=O)c2c(C)n1C(C)C(=O)Nc1ccccc1C(F)(F)F` (stereo unspecified), for which the “activity change, negative = cytotoxicity” value is inactive: -3.17%.

Turning to `CCCN(CCC)C(=O)Cn1c(=O)n(-c2cccc(C)c2)c(=O)c2c1c1cc(OC)ccc1n2C`, the “activity change, negative = cytotoxicity” value was inactive: 2.62%.

As for `CSc1ccc(-c2nnn(CC(=O)Nc3sc4c(c3C#N)CCC(C(C)(C)C)C4)n2)cc1` (stereo unspecified), the “activity change, negative = cytotoxicity” value is inactive: 12.1%.

`CCCCOc1ccc(C(C)NC(=O)CN2C(=O)CSc3ccc(S(=O)(=O)N4CCOCC4)cc32)cc1` (stereo unspecified): the “activity change, negative = cytotoxicity” value is inactive: -5.1%.

With `COc1cccc(-c2cc(C(F)(F)F)nc(NCCc3ccc(OC)c(OC)c3)n2)c1`, the “activity change, negative = cytotoxicity” value was inactive: 21.3%.

Take `O=S1(=O)c2ccccc2N(Cc2cccc(F)c2)c2ccccc21`: the “activity change, negative = cytotoxicity” value was inactive: 3.38%.

As to `COc1ccc(NC(=O)c2ccco2)cc1NC(=O)c1cc(Cl)ccc1OC`, the “activity change, negative = cytotoxicity” value is inactive: 12.1%.

For `CCC(=O)Nc1ccc(Cl)c(-c2nc3ccccc3[nH]2)c1`, the “activity change, negative = cytotoxicity” value is inactive: 3.92%.

Regarding `Cc1ccc(-n2ncc3c(N4CCCCCC4)ncnc32)cc1Cl`, the “activity change, negative = cytotoxicity” value is inactive: 10.7%.

As for `Cc1cccc(NC(=O)c2ccc(-n3c(C)nnc3C)cc2)c1`, the “activity change, negative = cytotoxicity” value was inactive: -12.9%.

As for `COc1ccccc1CNC(=O)CCc1c(C)nc2cc(-c3ccc(Cl)cc3)nn2c1C`, the “activity change, negative = cytotoxicity” value is inactive: -1.84%.

Turning to `Cc1c(C(=O)OC2CCCCC2)[nH]c2c1C(=O)CC(c1ccc(F)cc1)C2` (stereo unspecified), the “activity change, negative = cytotoxicity” value was inactive: 3.46%.

For `COc1ccc(-c2[nH]nc3nc(-c4cc(Br)ccc4OC)cc(C(=O)O)c23)cc1`, the “activity change, negative = cytotoxicity” value was inactive: 4.75%.

Consider `O=C(CN1CCCN(Cc2cccc(Cl)c2)S1(=O)=O)Nc1ccc2c(c1)OCCO2`, for which the “activity change, negative = cytotoxicity” value was inactive: -1.51%.
